Experimental data taken from PubChem BioAssay AID504832 (National Center for Advancing Translational Sciences (NCATS), 2011).
The whole screen tested about 310,000 compounds, of which about 18,000 (5.8%) were called active. This list was built around the results that the source calls inconclusive (neither active nor inactive); the mix of calls is not that of the screen. The call rests on the fitted dose curve; in most records, active means well fitted inhibition curve with a large enough effect; inconclusive means small, poorly fitted or top-dose-only effect, or another doubt; inactive means no such curve, though single readings can be large or run the other way. Potencies of inconclusive entries are left out as doubtful fits.

Assay: Primary qHTS for delayed death inhibitors of the malarial parasite plastid, 48 hour incubation
Conditions: P. falciparum luciferase growth in erythrocytes; series mostly up to 28.7 µM; activity change, negative = inhibition: at the top concentration
How it was run: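 Cell-based growth assay: transgenic P. falciparum expressing firefly luciferase, cultured in red cells within RPMI 1640 containing 0.5% w/v Albumax, 24 mM bicarbonate and gentamycin. A drop in luciferase activity indicates inhibition.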
On the % scale 0 is the no-effect control and ±100 the full control effect; potency means the concentration at half of the fitted maximal effect; tags describe the fitted curve by direction and shape.

| SMILES | Potency | activity change, negative = inhibition |
| --- | --- | --- |
| CCOC(=O)c1[nH]c2ccc(OC)cc2c1NC(=S)N1CCN(c2ccccn2)CC1 | inconclusive [inhibitor, partial curve, poor fit] | – |
| Cc1ccc(NC(=O)CCC(=O)c2cc(C)sc2C)nc1 | inconclusive [inhibitor, single point] | – |
| Cc1ccc(C)c(C2=CSC3=NCCN23)c1 | inconclusive [inhibitor, full curve, poor fit] | – |
| Cc1nn(-c2ccccc2)c(N2CCCC2)c1/C=N/NC(=O)c1cc2ccccc2cc1O | inconclusive [inhibitor, single point] | – |
| Cc1ccc(NC(=O)CN(C)CC(=O)Nc2c(C)cccc2C)c(Br)c1 | inconclusive [inhibitor, partial curve, poor fit] | – |
| COC(c1ccccc1)c1c(-c2ccccc2)nn(C)c1Cl (stereo not given) | active: 13.1 µM | – |
| O=C1CCCCc2sc(Br)c([N+](=O)[O-])c2N1 | – | inactive: 0.308% |
| CC(=NCCCn1ccnc1)c1c(C)[nH]n(-c2ccc([N+](=O)[O-])cc2)c1=O | inconclusive [inhibitor, single point] | – |
| CCc1ccc(NC(=S)Nc2cc(C(=O)O)ccc2N2CC3CC(C2)c2cccc(=O)n2C3)cc1 (stereo not given) | – | inactive: 36.1% |
| CCc1ccc(/C(C)=N/NC(=O)c2ccc(-n3cnnn3)cc2)cc1 | inconclusive [inhibitor, single point] | – |
| CCOC(=O)c1c(C)[nH]c(C(=O)COC(=O)c2ccc(O)cc2)c1C | inconclusive [inhibitor, partial curve, poor fit] | – |
| Cc1ccc(S(=O)(=O)N2[C@@H](c3ccccc3)C(C(=O)O)=CC[C@H]2c2ccc(Cl)c(Cl)c2)cc1 | inconclusive [inhibitor, single point] | – |
| O=C1C(=O)N(Cc2cccnc2)C(c2cccc(F)c2)/C1=C(/O)c1ccc2c(c1)OCO2 (stereo not given) | inconclusive [inhibitor, full curve, poor fit] | – |
| CCN(Cc1ccncc1)C(=S)Nc1ccccc1 | – | inactive: 23.7% |
| O=C(Cn1c(C(F)(F)F)nc2ccccc21)c1ccc(Cl)cc1 | inconclusive [inhibitor, partial curve, poor fit] | – |
| O=C(CCC(=O)c1cccs1)NCc1cccnc1 | – | inactive: 25.3% |
| O=C(COC(=O)/C=C/c1ccc(OC(F)F)cc1)Nc1ccc(N2CCOCC2)cc1 | – | inactive: -16.5% |
| Cc1ccc(SCCC(=O)N(C)CC(=O)Nc2c(C)cccc2C)cc1 | – | inactive: -20.1% |
| COC(=O)c1ccc(NC(=O)CSc2nc3cccnc3n2C)cc1 | inconclusive [inhibitor, single point] | – |
| C=CCn1c(SCC(=O)Nc2ccccc2CC)nnc1-c1ccncc1 | inconclusive [inhibitor, partial curve, poor fit] | – |
| O=[N+]([O-])c1cc(S(=O)(=O)N2CCCCC2)ccc1NCc1cccc(Cl)c1 | inconclusive [inhibitor, single point] | – |
| S=C1NC=NC2N=CNC12 (stereo not given) | inconclusive [inhibitor, single point] | – |

| SMILES | Potency | activity change, negative = inhibition |
| --- | --- | --- |
| CCCC1C(=O)Nc2ccccc2N1C(=O)c1ccc(C(C)(C)C)cc1 (stereo not given) | inconclusive [inhibitor, partial curve] | – |
| CCN(CC)/C(Sc1ccccc1)=C(\C(Cl)=C(Cl)Cl)[N+](=O)[O-] | – | inactive: -6.89% |
| CCN1CCCc2cc(CN(CCN3CCOCC3)C(=S)Nc3ccc(C)cc3)ccc21 | inconclusive [inhibitor, partial curve] | – |
| OCCC1CN(Cc2cccc(-n3cccn3)c2)CCN1Cc1ccccc1 (stereo not given) | – | inactive: -0.3% |
| Clc1ccc2ncc(-c3nnnn3-c3ccccc3)c(-c3ccccc3)c2c1 | inconclusive [inhibitor, single point] | – |
| CC(=O)c1c(-c2ccccc2)c2cc([N+](=O)[O-])ccc2[nH]c1=O | inconclusive [inhibitor, single point] | – |
| CCN(CC)CCCNc1oc(-c2ccccc2[N+](=O)[O-])nc1C#N | inconclusive [inhibitor, partial curve] | – |
| Cc1ccc2cc(CN(CC(C)C)S(=O)(=O)c3cccc4nonc34)c(=O)[nH]c2c1 | inconclusive [inhibitor, single point] | – |
| N#CC1=C(N)N=C(SCc2ccccc2)C(C(N)=O)C12CCCCC2 (stereo not given) | inconclusive [inhibitor, single point] | – |
| N#Cc1c2n(c3c(=O)n(Cc4ccc(Cl)cc4)cnc13)CCCCC2 | inconclusive [inhibitor, partial curve, poor fit] | – |
| O=C(Nc1cc([N+](=O)[O-])ccc1O)c1cccc([N+](=O)[O-])c1 | – | inactive: 32.5% |
| Cn1cc(CCC(=O)N2CCCC(C(=O)c3cccc4ccccc34)C2)cn1 (stereo not given) | inconclusive [inhibitor, single point] | – |
| Cc1ccccc1NC(=O)c1cccc2nc3ccccc3nc12 | inconclusive [inhibitor, partial curve] | – |
| COc1ccc(C(=O)Oc2cccc3cccnc23)cc1[N+](=O)[O-] | – | inactive: -23.9% |
| O=C(CCCN1C(=O)/C(=C/c2ccccc2Cl)SC1=S)NNC(=O)c1cccnc1 | active: 9.28 µM | – |
| O=C(CSc1nnc(CNC(=O)c2c(F)cccc2F)o1)NCc1ccccc1 | – | inactive: -1.44% |
| Cc1nnc(SCc2ccc(Cl)cc2)nc1/C=C/N(C)C | inconclusive [inhibitor, single point] | – |
| O=C(NC(=S)N1CCN(c2ccc(F)cc2)CC1)c1cccs1 | inconclusive [inhibitor, single point] | – |
| O=C(OCc1ccccc1)c1cn(-c2ccccc2)nc1-c1ccncc1 | inconclusive [inhibitor, single point] | – |
| CC(C(=O)N1CCCC1)c1ccc([N+](=O)[O-])cc1 (stereo not given) | – | inactive: 6.42% |
| Cc1ccc(S(=O)(=O)N(CC(=O)Nc2cccc(N(C)S(C)(=O)=O)c2)c2ccc(Cl)c(Cl)c2)cc1 | active: 13.1 µM | – |
| COc1cc2c(cc1OC)C(C)N(CC(=O)Nc1ccc(S(=O)(=O)N3CCCC3)cc1)CC2 (stereo not given) | active: 11.7 µM | – |

| SMILES | Potency | activity change, negative = inhibition |
| --- | --- | --- |
| COc1cc(/C=N/NC(=O)c2cccnc2)ccc1OC(=O)c1ccc2c(c1)OCO2 | – | inactive: 27.4% |
| CC1CN(S(=O)(=O)c2cccc(C(=O)NCCC3=CCCCC3)c2)CC(C)O1 (stereo not given) | inconclusive [inhibitor, single point] | – |
| Cc1cccc(NC(=O)Cn2c(=O)n(Cc3ccccc3)c(=O)c3c(C)c(C)sc32)c1 | inconclusive [inhibitor, single point] | – |
| COc1ccccc1NS(=O)(=O)c1cc(NC(=O)c2cccs2)ccc1N1CCOCC1 | active: 9.28 µM | – |
| C/C(=N/NS(=O)(=O)c1ccc(Cl)cc1)c1cccc(NC(=O)c2ccc(Cl)cc2Cl)c1 | inconclusive [inhibitor, single point] | – |
| N#CCC(=O)N1CCN(C=O)CC1 | – | inactive: 3.09% |
| C=CCN(C(=O)c1csnn1)C(C(=O)NCc1ccc(F)cc1)c1sccc1C (stereo not given) | – | inactive: -1.38% |
| NC(=O)c1cc([N+](=O)[O-])ccc1NCc1cnccn1 | – | inactive: -28% |
| OC[C@H]1O[C@@H]2O[C@H]3[C@H](O)[C@@H](O)[C@@H](O[C@H]4[C@H](O)[C@@H](O)[C@@H](O[C@H]5[C@H](O)[C@@H](O)[C@@H](O[C@H]6[C@H](O)[C@@H](O)[C@@H](O[C@H]7[C@H](O)[C@@H](O)[C@@H](O[C@H]8[C@H](O)[C@@H](O)[C@@H](O[C@H]1[C@H](O)[C@H]2O)O[C@@H]8CO)O[C@@H]7CO)O[C@@H]6CO)O[C@@H]5CO)O[C@@H]4CO)O[C@@H]3CO | – | inactive: 0.883% |
| CCOC(=O)c1ccc(NC(=O)Nc2cccc(C)n2)cc1 | – | inactive: -4.86% |
| CCOc1ccc(CCNC(=O)COC(=O)c2cc([N+](=O)[O-])ccc2N2CCOCC2)cc1OCC | inconclusive [inhibitor, single point] | – |
| Cc1ccc(CCN2CC(C(=O)NCCc3ccccc3)CC2=O)cc1 (stereo not given) | – | inactive: -21.6% |
| COc1cc2c(cc1OC)C(C)N(C(=O)c1ccc(Cl)c(S(=O)(=O)N3CCCCC3)c1)CC2 (stereo not given) | inconclusive [inhibitor, full curve] | – |
| CCN(CC)CCn1c(SCC(=O)NCCC2=CCCCC2)nc2c(sc3ccccc32)c1=O | inconclusive [inhibitor, full curve, poor fit] | – |
| COc1ccc(CCNC(=O)NCCc2c[nH]c3ccccc23)cc1OC | inconclusive [inhibitor, single point] | – |
| COc1ccc2c(c1)[C@H]1[C@H](CO2)[C@H](c2ccccc2)[C@]2(C)C(=O)Nc3cc(OC)c(OC)cc3C(=O)N12 | active: 9.28 µM | – |
| CN(C)C1(CNC(=O)c2ccc(Cl)c(S(=O)(=O)NCc3ccco3)c2)CCCCC1 | inconclusive [inhibitor, single point] | – |
| Cc1c(C(=O)NCCCN2CCCCC2)oc2ccc3c(c12)C(O)CC1(CCCCC1)O3 (stereo not given) | active: 8.28 µM | – |
| COc1ccc(S(=O)(=O)N2CCCCC2)cc1NC(=O)C1CCCC1 | inconclusive [inhibitor, partial curve, poor fit] | – |
| CC(C)(C)OC(=O)NCCCC[C@@H](C(=O)N1CCN(C(=O)OC(C)(C)C)CC1)n1cc(C(CO)NC(=O)OC(C)(C)C)nn1 (stereo not given in full) | inconclusive [inhibitor, partial curve, poor fit] | – |
| CC1CCCC(C)N1CCNC(=O)CCn1nc(-c2ccccc2)ccc1=O (stereo not given) | – | inactive: 27.3% |
